# According to the RNAGym collection of RNA variant scans (doi:10.7554/elife.90254):
# The source gives no read counts; variants with many changes may rest on few reads.
# B1: LINE1-mini (parent)
# chain: GGCAGAGCUCAACACAGCGUGGCAAAGUGGCUGUGGCUAGACUGCC
# Variants of: B1
# Assay: self-cleavage, relative activity (ratio to wild type); higher = more cleavage; in vitro, sequencing; the parent is a self-cleaving ribozyme
row,Variant,self-cleavage
1,G21U U32C G36U,0.18
2,G21U C37U U38C,0.01
3,G21U C23U G36A A41C,0.11
4,G21C G22C U32A G36A,0.01
5,G21U G22U G40C U43A,0.08
6,G21U C37G C46U,0.04
7,G22A G30A C42A,0.26
8,G22A C31A A39U G44U,0.01
9,G21C A24C G27U G35A,0.06
10,G21U C31U U43G C45U C46U,0.02
11,G21U U28C C42G,0
12,G22A G27U G35U,0.28
13,G22A G33U U38A,0.08
14,G21U G27U A41G,0.12
15,G21U G22C G33A G40A,0.09
16,G22C C23U C37G,0.01
17,G21C G27A U34G,0.08
18,G21C U28G G36U,0.01
19,G22A A24U A25G U28A,0.15
20,G21A G30C G33U U38G C45G,0.05
21,G22C C31G U32A G40C,0.01
22,G21U C31A G36A C37A A41C G44U C46G,0.03
23,G21U C31U G36A U43C C46A,0.03
24,G22A G35U U38C C45A,0.03

row,Variant,self-cleavage
1,G21U C23U U43C,0.13
2,G21C G27U C37A U38G,0
3,G22A G35U C46U,0.19
4,G22C A39U C46A,0.05
5,G22A G27U G36A,0.28
6,G22C C31G C37G,0.02
7,G21C C23A A41C C42U C46A,0.05
8,G21U G33U A41G C46U,0.35
9,G22C C23A C42G,0.07
10,G22A G33C G40A,0.02
11,G22A A41U C46U,0.25
12,G22C C23A U28A C46U,0.26
13,G21C A26U G30C G40U,0.05
14,G21C A39C G44A,0.06
15,G22C A41U G44A,0.12
16,G21A G33A U38G A39C C42A,0.04
17,G22A A26G C31A G35U C37U,0.01
18,G21C G40U U43G,0.03
19,G22A U28G G33C G35A,0.03
20,G22A A41C C45A,0.12
21,G22A C31U U34G U38A,0.01
22,G21U A26U G30A C45G,0.45
23,G22A A26G C31A,0.09
24,G22A A26G C31G,0.04

row,Variant,self-cleavage
1,G21U U34A C37A G40A C42U,0.04
2,G22A U28C C31A C37G,0.03
3,G22A G30A G40C,0.35
4,G21U G29U C46A,0.72
5,G21U C45U C46A,1.27
6,G21A U32G U43A,0.09
7,G21C C31G U34A C46U,0.01
8,G21C C23A A39C,0.02
9,G21U C23U C37A,0.03
10,G21U G27A G35A G36A,0.06
11,G21U C23U G30U A41U,0.4
12,G21A G35U C37U,0.07
13,G21C A41C G44A C45A,0.03
14,G21C A26C U38A,0.22
15,G21U U32C G35U,0.01
16,G21A G33C C46A,0.07
17,G22A A26G U28A,0.37
18,G21C C23A C37U,0.04
19,G21A U28C C45U C46G,1.19
20,G21U G33U U43A,0.01
21,G21C G22A U28C C31A C42G,0
22,G22C A24C A25C G30U U34A C46G,0.01
23,G22C A25U G30A A41C C46U,0.01
24,G21C G35U U38G,0.03

row,Variant,self-cleavage
1,G22A A26C G36C,0.05
2,G21U G30C C31A,0.13
3,G21U U38A G40U,0.04
4,G21U A25C G35U G36C,0.09
5,G21U C23U G27A U38C C42A,0.09
6,G22C A24C U43A,0.02
7,G21C G22C G27C U34A G36A,0.07
8,G21C G29U G40U,0.03
9,G21U G22C G44A,0.4
10,G21C G33C A39U C42U,0.02
11,G21U U28G C31U U38G,0.02
12,G21U G40U C42U,0.29
13,G22A U28A C31A,0.31
14,G21C A24U C37U,0.03
15,G21U G29U U43A,0.05
16,G22C C23A U32G C37G A39C C42A C45A,0.02
17,G22A A25C U28G A39C,0.05
18,G22A A24U G27C,0.24
19,G22C A24C U32A A39G C46U,0.09
20,G21U A25U C46G,1.68
21,G21U U38A C42U,0.07
22,G21U G33A U38G,0.09
23,G22C C23A G40C,0.02
24,G21U G27U U28A,0.15

row,Variant,self-cleavage
1,G21U G30U G33C G40C,0.12
2,G21C G22A C23U G29A C45U,0.74
3,G21U G22C A24G G33U,0.22
4,G21U A26G U38C G40A,0.27
5,G21U C23U A26G A41U,0.47
6,G22C C23G G27U U32G U34G,0.12
7,G21U A25U U43G G44U,0.39
8,G21C C31U G40A,0
9,G21U C23A A24U G33C,0.03
10,G22C A41C U43C,0.09
11,G21U C23A U34C,0.11
12,G21C A25U U32A G33A G40A,0.08
13,G21C C31A A41U,0.69
14,G21C G22C U32C G35A,0.06
15,G22A A25C G27A C31U G33U U34G A39G,0.01
16,G22A G33A A39U,0.11
17,G22C C23U C42A,0.03
18,G22C C23U C42G,0.06
19,G21C G29A C46A,1.48
20,G22A G36C G40U,0.32
21,G21A G36C A39C,0.07
22,G22A C23U A25G C45A,1.53
23,G21U C23A G40C C42A,0.15
24,G21C A39U G40A,0.07

row,Variant,self-cleavage
1,G21U U34A C42U,0.1
2,G21U G22U A24U A25G G27A G36U,0.1
3,G22C C31A U34G,0.13
4,G21C G22U A24G,2.96
5,G21U A24U G33C C37U,0.04
6,G22A A39G C46U,0.09
7,G21A G33U A41U,0.13
8,G21C U28G C31U,0.92
9,G21C C37U A39U,0.02
10,G22C A26U G33A,0.19
11,G21C G29A C31A,0.2
12,G21C G27C C31U,0.04
13,G21U G22C C23A,0.28
14,G21U G35U G44A,0.06
15,G22C A24C A39G,0.04
16,G22A U28C C37U,0.05
17,G21U C31G G36C,0.02
18,G21C G22U G35C,0.2
19,G21C G29A U34A G36A,0.05
20,G21U C23U C45G,0.04
21,G21U G30U G35U,0.1
22,G21U G22U C23G,1.6
23,G22A G27U C37A C45G,0.11
24,G21U C23U G27U A41U,1.07

row,Variant,self-cleavage
1,G21C G22A U43G C45U,0.03
2,G22A A26U G36U,0.1
3,G22A C23U G40A G44C,0.05
4,G21C G30U C37U,0.01
5,G21A U28G G40U,0.22
6,G21U G33U C37A A41G,0.07
7,G21C A24C G33A A39U U43A,0.07
8,G21U A25G G29U C31G G35U A39C,0.04
9,G22A G27A U34A C37U,0.02
10,G21C C31G C42G,0.05
11,G21U A25G U32G C37G,0.02
12,G21U G29U U38C,0.11
13,G22A G35U C37U,0.02
14,G21U A26U G35A,0.07
15,G21C C31U U32G C45G,0.04
16,G21C A24G G29C,0.34
17,G21A U32G G35U U38C,0.06
18,G22C A26G G27C U43A,0.04
19,G21U G33C C37A,0.04
20,G21U A24U G40A U43C G44A,0.05
21,G21A U32A G35A U43C,0.04
22,G21U A25U G30U C46G,0.95
23,G21C U43A C46U,0.02
